The whole screen tested about 350,000 compounds, of which about 9,900 (2.8%) were called active. Inconclusive results, whose numbers are uncertain, are shown with a selection of clear calls. Calls come from the whole dose curve; as a rule, active = well fitted activation curve with a large enough effect; inconclusive = small, poorly fitted or top-dose-only effect; inactive = no such curve, though single readings can be large or run the other way. Potencies of inconclusive entries are left out as doubtful fits.
Assay: A quantitative high throughput screen for small molecules that induce DNA re-replication in MCF 10a normal breast cells. Note: nearly all actives have a fitted effect of over 50% in size.
Conditions: MCF 10A DNA re-replication, Hoechst nuclear intensity, 48 h; series mostly up to 46.1 µM
In the case of `COc1ccccc1N(Cc1cc(=O)[nH]c2ccccc12)C(=O)C(C)C`, the Potency was inconclusive [activator, single point]. In the case of `Cc1cc(N2CCCC2=O)cc(C)c1S(=O)(=O)NCCOc1ccc(C(C)(C)C)cc1`, the Potency was inconclusive [activator, partial curve]. With `CC1(C)CC(CCN(Cc2ccccc2)C(=O)c2ccco2)(c2ccccc2)CCO1` (configuration not stated) the Potency was inconclusive [activator, single point]. For `O=[N+]([O-])c1cccc(S(=O)(=O)c2ccc(NCCO)c([N+](=O)[O-])c2)c1`, the Potency was inconclusive [activator, partial curve, poor fit]. With `COc1cccc(OC)c1OCCCCn1cnc2ccccc2c1=O` the Potency was inconclusive [activator, single point]. With `COc1ccc(/C=N/NC(=O)Cn2ccnc2C)cc1OC` the Potency was inconclusive [activator, partial curve, poor fit]. In the case of `Cc1cccc(-c2noc(CN(C(=O)c3c(-c4ccccc4Cl)noc3C)C(C)C)n2)c1`, the Potency was inconclusive [activator, partial curve, poor fit]. With `O=C(NC(Nc1nc2ccc([N+](=O)[O-])cc2s1)(C(F)(F)F)C(F)(F)F)c1ccccc1` the Potency was inconclusive [activator, full curve]. For `CCC(C)c1ccccc1OCCOCCN1CCCC1` (configuration not stated), the Potency was inconclusive [activator, full curve]. In the case of `CCCCN(C(=O)/C=C/c1ccc(OC)cc1)C1CCS(=O)(=O)C1` (configuration not stated), the Potency was “inactive”. For `Cc1ccc(-c2nn(CC(=O)NCC3CCCO3)c(=O)c3ccccc23)cc1` (configuration not stated), the Potency was inconclusive [activator, partial curve, poor fit]. For `Nc1c(-c2ccccc2)c(CSc2nc3ccccc3[nH]2)nn1-c1cccc(Cl)c1`, the Potency was inconclusive [activator, single point]. For `N#Cc1cc2c(=O)n3ccccc3nc2n(Cc2ccco2)c1=NC(=O)c1ccco1`, the Potency was active: 23.1 µM. With `CCOc1c(Br)ccc2c1sc1nc[nH]c(=O)c12` the Potency was inconclusive [activator, partial curve, poor fit]. With `O=[N+]([O-])c1cccc(-c2nc(-c3ccccc3)c(-c3cccs3)[nH]2)c1` the Potency was inconclusive [activator, partial curve, poor fit]. With `CC(C)C(CCNC1CCN(C)CC1)c1ccc(Cl)cc1` (configuration not stated) the Potency was inconclusive [activator, single point]. With `N#CC1=C(N)N(c2ccccc2)C(c2ccccc2)C1(C#N)C#N` (configuration not stated) the Potency was inconclusive [activator, partial curve]. In the case of `O=C(Nc1ccccc1F)c1ccc(CN2CCN(c3ccccc3)CC2)cc1`, the Potency was inconclusive [activator, single point]. For `COCCn1c(=NC(=O)c2sc3ccccc3c2Cl)sc2cc(S(N)(=O)=O)ccc21`, the Potency was inconclusive [activator, single point]. In the case of `COc1ccc2oc(C(=O)Nc3nc4ccc(S(C)(=O)=O)cc4s3)c(C)c2c1`, the Potency was inconclusive [activator, partial curve, poor fit]. In the case of `CC(=O)Oc1ccc(C#C/C=C2\c3ccccc3C(=O)N2c2ccccc2)cc1`, the Potency was inconclusive [activator, single point]. With `COc1ccc(CCNC(=O)c2cccn2C)cc1` the Potency was “inactive”. With `COc1ccc(NC(=O)c2cc3ccccc3o/c2=N\NS(=O)(=O)c2ccc(C)cc2)cc1` the Potency was inconclusive [activator, full curve]. With `CCc1nnc(NC(=O)C2CCCN(c3nc(C)cc(C)n3)C2)s1` (configuration not stated) the Potency was “inactive”. For `CN1CCN(c2nc3c(c(=O)n(C)c(=O)n3C)n2Cc2cccc(Br)c2)CC1`, the Potency was inconclusive [activator, single point]. With `O=C(O)CCCCCN1C(=O)c2ccc(C(=O)O)cc2C1=O` the Potency was active: 14.6 µM. With `CCOc1ccc(C(=O)N(Cc2ccccc2)c2cccc(C)c2)cc1OC` the Potency was inconclusive [activator, single point]. For `O=C(CCCC(=O)OCC1CCCO1)OCC1CCCO1` (configuration not stated), the Potency was inconclusive [activator, partial curve, poor fit]. For `Cc1ccc(-n2cc(-c3ccccc3)c3c(N4CCN(C)CC4)ncnc32)cc1`, the Potency was active: 20.6 µM. For `CN(C(=O)CSc1ncnc2ccccc12)C1CCCCC1`, the Potency was “inactive”. With `Cc1c(Cl)c([N+](=O)[O-])nn1CC(=O)N1CCN(C23CC4CC(CC(C4)C2)C3)CC1` the Potency was inconclusive [activator, full curve, poor fit]. In the case of `Cc1cccc(/C(N)=N/OC(=O)N2c3ccccc3Sc3ccccc32)c1`, the Potency was inconclusive [activator, single point]. For `COC(=O)C(CO)NC(=O)C1CCCN1C(=O)CNC(=O)OCc1ccccc1` (configuration not stated), the Potency was “inactive”. For `CCCCc1c(C)c2ccc(OC)c(/C(C)=N\O)c2oc1=O`, the Potency was “inactive”. For `COc1ccc([C@H]2CC(=O)C=C(c3ccc4ccccc4c3)C2)cc1OC`, the Potency was inconclusive [activator, full curve]. For `CCCCn1nc(C(=O)Nc2ccccc2N2CCCC2)c2ccccc2c1=O`, the Potency was inconclusive [activator, single point]. In the case of `CCN1CCn2c3c(c4cc(Br)ccc42)CCCC31` (configuration not stated), the Potency was inconclusive [activator, partial curve, poor fit]. In the case of `COc1ccccc1/C=C/C(=O)OCC(=O)NCc1ccc2c(c1)OCO2`, the Potency was “inactive”. For `O=Cc1sc(=O)n(Cc2cccc(C(=O)O)c2)c1Cl`, the Potency was active: 29.1 µM. In the case of `O=C(NCc1ccco1)c1cc(S(=O)(=O)N2CCOCC2)c(Cl)cc1Cl`, the Potency was “inactive”. For `Cc1ccc(C)n1-c1ccc(-c2ccnc(N)n2)cc1`, the Potency was inconclusive [activator, single point]. For `O=C(N1CCOCC1)N1CCN(c2nc(-c3ccccc3)cs2)CC1`, the Potency was inconclusive [activator, single point]. For `CCOC(=O)C(=CNc1cccc(C)n1)C(=O)OCC`, the Potency was “inactive”. With `COc1ccc(CNCc2c(F)cccc2F)cc1OC` the Potency was “inactive”. For `Cc1cccc(NS(=O)(=O)c2ccc3[nH]c(=O)cc(C(=O)OC(C)C(=O)Nc4ccc([N+](=O)[O-])cc4)c3c2)c1` (configuration not stated), the Potency was “inactive”. For `CCOC(=O)N1CCC(NC(=O)c2cc3c(=O)[nH]c4ccccc4c3n2C)CC1`, the Potency was inconclusive [activator, partial curve, poor fit]. In the case of `COc1ccc(N2C(=O)CC(Sc3nnnn3-c3ccc(F)cc3)C2=O)cc1` (configuration not stated), the Potency was inconclusive [activator, single point]. With `O=C(Nc1ccc(S(=O)(=O)N2CCCCCC2)cc1)c1c(F)cccc1F` the Potency was inconclusive [activator, single point]. With `CCCNC(=O)c1nn2c(C(F)(F)F)cc(-c3ccccc3)nc2c1Cl` the Potency was inconclusive [activator, single point]. With `CSc1nnc(Cn2c(=O)sc3ccccc32)n1-c1ccccc1C` the Potency was “inactive”. In the case of `CCn1c(=N)c(C(=O)NCCCOC)cc2c(=O)n3cccc(C)c3nc21`, the Potency was inconclusive [activator, partial curve, poor fit]. With `CS(=O)(=O)c1nc(-c2ccccc2)cc(-c2ccccc2)c1C#N` the Potency was active: 2.91 µM. With `CCC(=O)Nc1sc(C(=O)N2CCCCC2)c(C)c1C#N` the Potency was “inactive”. In the case of `Cc1ccc(C(=O)NCCn2c(N)c(C#N)c3nc4ccccc4nc32)cc1`, the Potency was inconclusive [activator, single point]. With `C[C@H](NC(=O)c1[nH]cnc1C(=O)Nc1ccc(CNC(=O)OC(C)(C)C)cc1)C(=O)OC(C)(C)C` the Potency was inconclusive [activator, single point]. In the case of `O=C(NNC(=O)c1ccncc1)Nc1ccc(Br)cc1`, the Potency was “inactive”. In the case of `Cc1ccc(C(=O)Nc2ccc(NC(=O)c3ccco3)c(C)c2)cc1`, the Potency was “inactive”. For `CC1(C)Cc2ccccc2-c2nnc(-c3cccc(O)c3)n21`, the Potency was inconclusive [activator, partial curve, poor fit]. In the case of `COc1ccc(OC)c(/C=N/NC(=O)c2cc3c(OC)cccc3[nH]2)c1`, the Potency was inconclusive [activator, single point]. For `O=C(CSc1ccsc1[N+](=O)[O-])NCc1ccccc1`, the Potency was “inactive”. For `COC/C=C/C1=CC2=CC(=O)C(C)(OC(=O)c3cnc4ccccc4n3)C(=O)C2=CN1Cc1ccccc1` (configuration not stated), the Potency was inconclusive [activator, single point]. In the case of `Cc1ccc(C(=O)N2c3ccccc3NC(=O)C2C)cc1` (configuration not stated), the Potency was inconclusive [activator, single point]. In the case of `CCOc1ccc(-c2c(C(=O)N/N=C/c3cccs3)nnn2-c2nonc2N)cc1`, the Potency was inconclusive [activator, single point]. In the case of `O=C(CSc1nnc(-c2cccnc2)o1)OC1CCCCC1`, the Potency was inconclusive [activator, partial curve, poor fit]. In the case of `O=C(OCc1cccc(Cl)c1)c1cc(S(=O)(=O)N2CCCCC2)ccc1N1CCOCC1`, the Potency was inconclusive [activator, partial curve, poor fit]. With `O=C(CC1(O)C(=O)N(Cc2ccccc2)c2ccccc21)c1ccncc1` (configuration not stated) the Potency was inconclusive [activator, partial curve, poor fit]. For `Cc1ccc(Cl)c(OC(=O)Cn2cnc3c2c(=O)n(C)c(=O)n3C)c1`, the Potency was “inactive”.
Potency is the fitted concentration of half-maximal effect; tags give direction and shape of the fitted curve.
